Test results as given in the supplement of paper PMC9151546.
Most values come without repeats; read them as rough.

Experiments:
CHO-K1 [1] = assay: relative survival (nuclei to bead ratio vs DMSO control) (% of vehicle control); higher = more surviving cells
Experimental: (§1)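 Flow-cytometric in vitro micronucleus assay (Litron MicroFlow) in CHO-K1 cells in 96-well plates, 19 concentrations (4.5-200 µM, n=1 per concentration). Without S9, cells were exposed for 24 h and sampled at 48 h. With Aroclor 1254-induced rat liver S9, cells were exposed for 3-4 h and sampled at 27-28 h. Read-outs are %MN and %hypodiploid nuclei relative to nucleated events, and relative survival as the nuclei-to-bead ratio versus the 1% DMSO vehicle control (x100).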

CHO-K1 [2] = assay: hypodiploid nuclei frequency (% of nucleated events); higher = more hypodiploid events (aneugenic)
Experimental: as §1

CHO-K1 [3] = assay: micronucleus frequency (% of nucleated events); higher = more micronuclei (genotoxic)
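Throughout, for hypodiploid nuclei frequency (% of nucleated events): hypodiploid nuclei gated on a flow cytometer with 488 nm excitation after SYTOX Green staining, cultures at 37 °C, positive controls vinblastine without S9 and cyclophosphamide with S9.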
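Throughout, for micronucleus frequency (% of nucleated events): cells lysed with nuclei stained by SYTOX Green, then micronucleus-gated events counted against nucleated events by flow cytometry with 488 nm excitation.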
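Throughout, for relative survival (nuclei to bead ratio vs DMSO control): Lysed-cell nuclei stained with SYTOX Green and counted against counting beads by flow cytometry at 488 nm excitation, with vinblastine (no S9) and cyclophosphamide (plus S9) as positive controls.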

COC(=O)c1ccccc1C(=O)OC [Dimethyl phthalate]
Details | hypodiploid nuclei frequency, CHO-K1 [2] [%] | micronucleus frequency, CHO-K1 [3] [%] | relative survival, CHO-K1 [1]
concentration: 4.5 (µM), S9 metabolic activation: with S9, exposure time: 3-4 hours | 0.27 | 1.44 | 135
concentration: 4.5 (µM), S9 metabolic activation: without S9, exposure time: 24 hours | 0.44 | 1.34 | 112.4
concentration: 5.63 (µM), S9 metabolic activation: with S9, exposure time: 3-4 hours | 0.31 | 1.2 | 103.7
concentration: 5.63 (µM), S9 metabolic activation: without S9, exposure time: 24 hours | 0.46 | 1.32 | 114
concentration: 7.04 (µM), S9 metabolic activation: with S9, exposure time: 3-4 hours | 0.28 | 2.16 | 107
concentration: 7.04 (µM), S9 metabolic activation: without S9, exposure time: 24 hours | 0.42 | 1.49 | 119
concentration: 8.8 (µM), S9 metabolic activation: with S9, exposure time: 3-4 hours | 0.21 | 1.42 | 91.4
concentration: 8.8 (µM), S9 metabolic activation: without S9, exposure time: 24 hours | 0.63 | 1.27 | 117
concentration: 11 (µM), S9 metabolic activation: with S9, exposure time: 3-4 hours | 0.25 | 2.01 | 104.6
concentration: 11 (µM), S9 metabolic activation: without S9, exposure time: 24 hours | 0.53 | 1.38 | 109
concentration: 13.7 (µM), S9 metabolic activation: with S9, exposure time: 3-4 hours | 0.22 | 1.37 | 101
concentration: 13.7 (µM), S9 metabolic activation: without S9, exposure time: 24 hours | 0.64 | 1.4 | 117
concentration: 17.2 (µM), S9 metabolic activation: with S9, exposure time: 3-4 hours | 0.27 | 1.39 | 103
concentration: 17.2 (µM), S9 metabolic activation: without S9, exposure time: 24 hours | 0.37 | 1.18 | 118
concentration: 21.5 (µM), S9 metabolic activation: with S9, exposure time: 3-4 hours | 0.19 | 1.21 | 100
concentration: 21.5 (µM), S9 metabolic activation: without S9, exposure time: 24 hours | 0.56 | 1.3 | 107
concentration: 26.8 (µM), S9 metabolic activation: with S9, exposure time: 3-4 hours | 0.31 | 1.24 | 120
concentration: 26.8 (µM), S9 metabolic activation: without S9, exposure time: 24 hours | 0.47 | 1.4 | 95.8
concentration: 33.6 (µM), S9 metabolic activation: with S9, exposure time: 3-4 hours | 0.16 | 1.42 | 108
concentration: 33.6 (µM), S9 metabolic activation: without S9, exposure time: 24 hours | 0.4 | 1.73 | 91.8
concentration: 41.9 (µM), S9 metabolic activation: with S9, exposure time: 3-4 hours | 0.28 | 1.36 | 114
concentration: 41.9 (µM), S9 metabolic activation: without S9, exposure time: 24 hours | 0.53 | 1.5 | 95.9
concentration: 52.4 (µM), S9 metabolic activation: with S9, exposure time: 3-4 hours | 0.31 | 1.11 | 90.7
concentration: 52.4 (µM), S9 metabolic activation: without S9, exposure time: 24 hours | 0.55 | 1.29 | 103
concentration: 65.5 (µM), S9 metabolic activation: with S9, exposure time: 3-4 hours | 0.29 | 1.3 | 98
concentration: 65.5 (µM), S9 metabolic activation: without S9, exposure time: 24 hours | 0.61 | 1.65 | 110
concentration: 81.9 (µM), S9 metabolic activation: with S9, exposure time: 3-4 hours | 0.29 | 1.75 | 92.4
concentration: 81.9 (µM), S9 metabolic activation: without S9, exposure time: 24 hours | 0.51 | 1.42 | 106
concentration: 102 (µM), S9 metabolic activation: with S9, exposure time: 3-4 hours | 0.31 | 1.85 | 98.6
concentration: 102 (µM), S9 metabolic activation: without S9, exposure time: 24 hours | 0.82 | 1.65 | 82.3
concentration: 128 (µM), S9 metabolic activation: with S9, exposure time: 3-4 hours | 0.27 | 1.24 | 91.1
concentration: 128 (µM), S9 metabolic activation: without S9, exposure time: 24 hours | 0.75 | 1.92 | 114
concentration: 160 (µM), S9 metabolic activation: with S9, exposure time: 3-4 hours | 0.29 | 1.43 | 84.6
concentration: 160 (µM), S9 metabolic activation: without S9, exposure time: 24 hours | 0.78 | 1.93 | 106
concentration: 200 (µM), S9 metabolic activation: with S9, exposure time: 3-4 hours | 0.2 | 1.49 | 100
concentration: 200 (µM), S9 metabolic activation: without S9, exposure time: 24 hours | 0.97 | 2.15 | 99.7
